Reference: the supplement of paper PMC4604168 (melanoma cell lines)
This is one part of the list. Most values come without repeats; read them as rough.

What follows are compounds tested on A375 (assay: cell count relative to DMSO control; melanoma cells; higher = more viable cells). Conditions: library dose: standard library concentration; 72 h.
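Further: cells treated in 1,536-well plates, then fixed and DAPI-stained, with nuclei counted from automated high-throughput microscope images.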

SMILES | cell count
N.N.[Cl][Pt][Cl] [cisplatin] + Nc1ncn([C@H]2C[C@H](O)[C@@H](CO)O2)c(=O)n1 [decitabine] (first compound 8 µM, partner dose 0.5 µM) | 84.6%
C[C@]12O[C@H](C[C@]1(O)CO)n1c3ccccc3c3c4c(c5c6ccccc6n2c5c31)CNC4=O [Lestaurtinib] + Nc1ncn([C@H]2C[C@H](O)[C@@H](CO)O2)c(=O)n1 [decitabine] (first compound 0.02 µM, partner dose 0.5 µM) | 93.9%
N.N.[Cl][Pt][Cl] [cisplatin] + CCCS(=O)(=O)Nc1ccc(F)c(C(=O)c2c[nH]c3ncc(Cl)cc23)c1F [PLX4720] (first compound 8 µM, partner dose 0.4 µM) | 109%
C[C@]12O[C@H](C[C@]1(O)CO)n1c3ccccc3c3c4c(c5c6ccccc6n2c5c31)CNC4=O [Lestaurtinib] + Cn1nnc2c(C(N)=O)ncn2c1=O [temozolomide] (first compound 0.02 µM, partner dose 10 µM) | 107%
N.N.[Cl][Pt][Cl] [cisplatin] + CNC(=O)c1cc(Oc2ccc(NC(=O)Nc3ccc(Cl)c(C(F)(F)F)c3)cc2)ccn1 [sorafenib] (first compound 8 µM, partner dose 2 µM) | 99.9%
C[C@]12O[C@H](C[C@]1(O)CO)n1c3ccccc3c3c4c(c5c6ccccc6n2c5c31)CNC4=O [Lestaurtinib] + Cn1cc(/C=C2\C(=O)Nc3cccnc32)c2ccccc21 [GW441756] (first compound 0.02 µM, partner dose 2 µM) | 153%
C[C@]12O[C@H](C[C@]1(O)CO)n1c3ccccc3c3c4c(c5c6ccccc6n2c5c31)CNC4=O [Lestaurtinib] + O=C1NC(=O)/C(=C/c2ccc(-c3ccc(F)cc3O)o2)S1 [AS252424] (first compound 0.02 µM, partner dose 5 µM) | 115%
N.N.[Cl][Pt][Cl] [cisplatin] + Cc1ccc(NC(=O)c2cccc(N(C)C)c2)cc1NC(=O)c1ccc(O)cc1 [ZM336372] (first compound 8 µM, partner dose 10 µM) | 102%
C[As](C)SC[C@H](NC(=O)CC[C@H](N)C(=O)O)C(=O)NCC(=O)O [Darinaparsin] + Cc1cc(SCc2sc(-c3ccc(C(F)(F)F)c(F)c3)nc2C)ccc1OCC(=O)O [GW0742] (first compound 2 µM, partner dose 10 µM) | 91.2%
Cn1cc(C2=C(c3cn(C4CCN(Cc5ccccn5)CC4)c4ccccc34)C(=O)NC2=O)c2ccccc21 [Enzastaurin] + C=C(c1ccc(C(=O)O)cc1)c1cc2c(cc1C)C(C)(C)CCC2(C)C [Bexarotene] (first compound 4 µM, partner dose 10 µM) | 93.8%
C[C@]12O[C@H](C[C@]1(O)CO)n1c3ccccc3c3c4c(c5c6ccccc6n2c5c31)CNC4=O [Lestaurtinib] + C[C@@H](Oc1cc(-c2cnn(C3CCNCC3)c2)cnc1N)c1c(Cl)ccc(F)c1Cl [Crizotinib] (first compound 0.02 µM, partner dose 1 µM) | 118%
C[C@]12O[C@H](C[C@]1(O)CO)n1c3ccccc3c3c4c(c5c6ccccc6n2c5c31)CNC4=O [Lestaurtinib] + CC(C)(C)c1cnc(CSc2cnc(NC(=O)C3CCNCC3)s2)o1 [SNS-032] (first compound 0.02 µM, partner dose 0.05 µM) | 107%
Cn1cc(C2=C(c3cn(C4CCN(Cc5ccccn5)CC4)c4ccccc34)C(=O)NC2=O)c2ccccc21 [Enzastaurin] + O=C(O)C(=O)Nc1sc2c(c1C(=O)O)CCNC2 [TCS401] (first compound 4 µM, partner dose 8.33333 µM) | 129%
N.N.[Cl][Pt][Cl] [cisplatin] + COCC[n+]1c2c(n(Cc3cnccn3)c1C)C(=O)c1ccccc1C2=O [YM155] (first compound 8 µM, partner dose 0.002 µM) | 70.5%
C[C@]12O[C@H](C[C@]1(O)CO)n1c3ccccc3c3c4c(c5c6ccccc6n2c5c31)CNC4=O [Lestaurtinib] + C=CCNC1=C2C[C@@H](C)C[C@H](OC)[C@H](O)[C@@H](C)/C=C(\C)[C@H](OC(N)=O)[C@@H](OC)/C=C\C=C(/C)C(=O)NC(=CC1=O)C2=O [Tanespimycin] (first compound 0.02 µM, partner dose 0.01 µM) | 104%
